The results in this text go back to article PMC12820563, “FoxP3 forms a head-to-head dimer in vivo and stabilizes its multimerization on adjacent microsatellites”.

This is one part of the list.

The assay addresses T1, MBP-FoxP1dN (Mus musculus, UniProt P58462 326-579).
T1 sequence: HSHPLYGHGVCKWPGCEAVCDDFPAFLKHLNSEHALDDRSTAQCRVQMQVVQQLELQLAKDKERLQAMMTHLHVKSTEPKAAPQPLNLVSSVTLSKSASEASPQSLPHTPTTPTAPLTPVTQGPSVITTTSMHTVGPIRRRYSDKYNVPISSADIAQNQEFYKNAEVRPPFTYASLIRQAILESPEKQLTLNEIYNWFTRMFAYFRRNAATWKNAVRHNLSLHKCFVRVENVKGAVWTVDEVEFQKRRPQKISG
Description: PD-seq (MBP pull-down with sequencing); 20 mM Tris-HCl pH 7.5, 100 mM NaCl, 1.5 mM MgCl2, 0.4 uM protein, 0.1 uM dsDNA library, 30 min, room temperature, amylose pull-down; high values mean tight binding. To be noted: protein: recombinant; tags: His6-MBP; chain copies: 2; dsDNA, one strand shown. In a few lines: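 His6-MBP-tagged mouse FoxP3 or FoxP1 fragment lacking the N-terminus, expressed in E. coli, was mixed at 0.4 µM with 0.1 µM Klenow-filled double-stranded degenerate DNA library. Incubation was 30 min at room temperature in Tris pH 7.5 buffer with NaCl and MgCl2. Complexes were caught on amylose resin and washed three times; DNA was released with proteinase K, PCR-barcoded and Illumina-sequenced. Binding is reads-per-million enrichment, pull-down over input, with replicates pooled.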
Consider “GATGATTGTTCTCCCAGCTGATGAATTCTGGATGTCGAGTAAACAAATTTTCCTAATCTTTCTGTTCAAGCGCCATCTAC”, for which the binding signal was 0.859 RPM ratio (pull-down/input). In the case of “GATGATTGTTCTCCCAGCTGATGAATTCGCGACTTCGAGTAAACAAATTTTCCTAATCTTTCTGTTCAAGCGCCATCTAC”, the binding signal was 0.875 RPM ratio (pull-down/input). With “GATGATTGTTCTCCCAGCTGATGAATTTAATGTTTCGAGTAAACAAATTTTCCTAATCTTTCTGTTCAAGCGCCATCTAC” the figure was 1.15 RPM ratio (pull-down/input).

“GATGATTGTTCTCCCAGCTGATGAATTTTCGCGGTCGAGTAAACAAATTTTCCTAATCTTTCTGTTCAAGCGCCATCTAC”: the binding signal is 0.838 RPM ratio (pull-down/input).

With “GATGATTGTTCTCCCAGCTGATGAATTTAGTCTGTCGAGTAAACAAATTTTCCTAATCTTTCTGTTCAAGCGCCATCTAC”, the binding signal was 0.85 RPM ratio (pull-down/input). For “GATGATTGTTCTCCCAGCTGATGAATTTTTAGGTTCGAGTAAACAAATTTTCCTAATCTTTCTGTTCAAGCGCCATCTAC” the value was 0.874 RPM ratio (pull-down/input); for “GATGATTGTTCTCCCAGCTGATGAATTAGCACCCTCGAGTAAACAAATTTTCCTAATCTTTCTGTTCAAGCGCCATCTAC”, 0.887 RPM ratio (pull-down/input); for “GATGATTGTTCTCCCAGCTGATGAATTTCTCGTATCGAGTAAACAAATTTTCCTAATCTTTCTGTTCAAGCGCCATCTAC”, 0.867 RPM ratio (pull-down/input).

As for “GATGATTGTTCTCCCAGCTGATGAATTGATGCGCTCGAGTAAACAAATTTTCCTAATCTTTCTGTTCAAGCGCCATCTAC”, the binding signal is 1.45 RPM ratio (pull-down/input). For “GATGATTGTTCTCCCAGCTGATGAATTGCATCACTCGAGTAAACAAATTTTCCTAATCTTTCTGTTCAAGCGCCATCTAC” the value was 1.5 RPM ratio (pull-down/input); for “GATGATTGTTCTCCCAGCTGATGAATTTGGCGCGTCGAGTAAACAAATTTTCCTAATCTTTCTGTTCAAGCGCCATCTAC”, 1.02 RPM ratio (pull-down/input); for “GATGATTGTTCTCCCAGCTGATGAATTATAGAATTCGAGTAAACAAATTTTCCTAATCTTTCTGTTCAAGCGCCATCTAC”, 0.945 RPM ratio (pull-down/input). For “GATGATTGTTCTCCCAGCTGATGAATTCGCACTCTCGAGTAAACAAATTTTCCTAATCTTTCTGTTCAAGCGCCATCTAC” the value was 0.925 RPM ratio (pull-down/input); for “GATGATTGTTCTCCCAGCTGATGAATTTATGAGATCGAGTAAACAAATTTTCCTAATCTTTCTGTTCAAGCGCCATCTAC”, 1.08 RPM ratio (pull-down/input). Consider “GATGATTGTTCTCCCAGCTGATGAATTTACGAGTTCGAGTAAACAAATTTTCCTAATCTTTCTGTTCAAGCGCCATCTAC”, for which the binding signal is 1.16 RPM ratio (pull-down/input).

On to “GATGATTGTTCTCCCAGCTGATGAATTGACTCCCTCGAGTAAACAAATTTTCCTAATCTTTCTGTTCAAGCGCCATCTAC”, for which the binding signal was 1.04 RPM ratio (pull-down/input). With “GATGATTGTTCTCCCAGCTGATGAATTTTTGCGCTCGAGTAAACAAATTTTCCTAATCTTTCTGTTCAAGCGCCATCTAC” the figure was 0.799 RPM ratio (pull-down/input); with “GATGATTGTTCTCCCAGCTGATGAATTTATAGACTCGAGTAAACAAATTTTCCTAATCTTTCTGTTCAAGCGCCATCTAC”, 0.965 RPM ratio (pull-down/input). With “GATGATTGTTCTCCCAGCTGATGAATTTAACCAGTCGAGTAAACAAATTTTCCTAATCTTTCTGTTCAAGCGCCATCTAC” the figure was 0.791 RPM ratio (pull-down/input); with “GATGATTGTTCTCCCAGCTGATGAATTCTTCAGTTCGAGTAAACAAATTTTCCTAATCTTTCTGTTCAAGCGCCATCTAC”, 0.849 RPM ratio (pull-down/input); with “GATGATTGTTCTCCCAGCTGATGAATTACACTACTCGAGTAAACAAATTTTCCTAATCTTTCTGTTCAAGCGCCATCTAC”, 1.14 RPM ratio (pull-down/input).

With “GATGATTGTTCTCCCAGCTGATGAATTCAAGAGATCGAGTAAACAAATTTTCCTAATCTTTCTGTTCAAGCGCCATCTAC”, the binding signal is 0.784 RPM ratio (pull-down/input). With “GATGATTGTTCTCCCAGCTGATGAATTCTTTGGGTCGAGTAAACAAATTTTCCTAATCTTTCTGTTCAAGCGCCATCTAC” the figure was 0.822 RPM ratio (pull-down/input). With “GATGATTGTTCTCCCAGCTGATGAATTTCTAGTGTCGAGTAAACAAATTTTCCTAATCTTTCTGTTCAAGCGCCATCTAC” the figure was 0.945 RPM ratio (pull-down/input); with “GATGATTGTTCTCCCAGCTGATGAATTAGTTGCCTCGAGTAAACAAATTTTCCTAATCTTTCTGTTCAAGCGCCATCTAC”, 1.05 RPM ratio (pull-down/input); with “GATGATTGTTCTCCCAGCTGATGAATTATTTATATCGAGTAAACAAATTTTCCTAATCTTTCTGTTCAAGCGCCATCTAC”, 1.75 RPM ratio (pull-down/input). For “GATGATTGTTCTCCCAGCTGATGAATTCTGCTCCTCGAGTAAACAAATTTTCCTAATCTTTCTGTTCAAGCGCCATCTAC”, the binding signal was 0.728 RPM ratio (pull-down/input).

With “GATGATTGTTCTCCCAGCTGATGAATTTACCTCCTCGAGTAAACAAATTTTCCTAATCTTTCTGTTCAAGCGCCATCTAC”, the binding signal was 1.07 RPM ratio (pull-down/input). For “GATGATTGTTCTCCCAGCTGATGAATTATATGACTCGAGTAAACAAATTTTCCTAATCTTTCTGTTCAAGCGCCATCTAC”, the binding signal was 0.981 RPM ratio (pull-down/input). With “GATGATTGTTCTCCCAGCTGATGAATTTTTAGTCTCGAGTAAACAAATTTTCCTAATCTTTCTGTTCAAGCGCCATCTAC” the figure was 0.983 RPM ratio (pull-down/input); with “GATGATTGTTCTCCCAGCTGATGAATTTAATGCGTCGAGTAAACAAATTTTCCTAATCTTTCTGTTCAAGCGCCATCTAC”, 1.22 RPM ratio (pull-down/input); with “GATGATTGTTCTCCCAGCTGATGAATTTCTTATATCGAGTAAACAAATTTTCCTAATCTTTCTGTTCAAGCGCCATCTAC”, 0.948 RPM ratio (pull-down/input).

On to “GATGATTGTTCTCCCAGCTGATGAATTGGGGAAGTCGAGTAAACAAATTTTCCTAATCTTTCTGTTCAAGCGCCATCTAC”, for which the binding signal was 0.788 RPM ratio (pull-down/input). For “GATGATTGTTCTCCCAGCTGATGAATTTTGCACATCGAGTAAACAAATTTTCCTAATCTTTCTGTTCAAGCGCCATCTAC” the value was 1.07 RPM ratio (pull-down/input); for “GATGATTGTTCTCCCAGCTGATGAATTTCGGCGGTCGAGTAAACAAATTTTCCTAATCTTTCTGTTCAAGCGCCATCTAC”, 0.736 RPM ratio (pull-down/input). Turning to “GATGATTGTTCTCCCAGCTGATGAATTTTTGGGGTCGAGTAAACAAATTTTCCTAATCTTTCTGTTCAAGCGCCATCTAC”, the binding signal is 0.802 RPM ratio (pull-down/input). With “GATGATTGTTCTCCCAGCTGATGAATTACCCTACTCGAGTAAACAAATTTTCCTAATCTTTCTGTTCAAGCGCCATCTAC” the figure was 0.96 RPM ratio (pull-down/input); with “GATGATTGTTCTCCCAGCTGATGAATTTCTGAAGTCGAGTAAACAAATTTTCCTAATCTTTCTGTTCAAGCGCCATCTAC”, 0.815 RPM ratio (pull-down/input); with “GATGATTGTTCTCCCAGCTGATGAATTCTCAAGTTCGAGTAAACAAATTTTCCTAATCTTTCTGTTCAAGCGCCATCTAC”, 0.843 RPM ratio (pull-down/input). Consider “GATGATTGTTCTCCCAGCTGATGAATTTGGGGCGTCGAGTAAACAAATTTTCCTAATCTTTCTGTTCAAGCGCCATCTAC”, for which the binding signal is 0.889 RPM ratio (pull-down/input).
